Source: PubChem BioAssay AID686979 (National Center for Advancing Translational Sciences (NCATS), 2013)
In all, about 420,000 compounds went through this assay and about 50,000 (12%) were called active. The shares of active, inactive and inconclusive entries below differ from those in the screen. Calls come from the whole dose curve; as a rule, active = well fitted inhibition curve with a large enough effect; inconclusive = small, poorly fitted or top-dose-only effect; inactive = flat fitted curve, though single readings scatter. Potencies of inconclusive entries are left out as doubtful fits.

assay: qHTS for Inhibitors of human tyrosyl-DNA phosphodiesterase 1 (TDP1): qHTS in cells in presence of CPT; conditions: chicken DT40 Tdp1-/-;hTDP1 cells + 20 nM CPT, ATP luminescence, 48 h; activity change, negative = growth inhibition: at 46.2 µM (top of the series) unless noted; note: nearly all actives have a fitted effect of over 55% in size
Outline: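 Cell growth measured by CellTiter-Glo luminescence after a minimum 48 h, 37 C compound exposure with 20 nM CPT in Tdp1-knockout DT40 cells stably expressing hTDP1, seeded 400/well; qHTS titration format.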
% is set by controls: 0 for no effect and ±100 for the full control effect; potency is the fitted concentration of half-maximal effect; tags give direction and shape of the fitted curve.

| Structure (SMILES) | activity change, negative = growth inhibition | Potency |
| --- | --- | --- |
| CC(=O)NS(=O)(=O)c1ccc(NC(=O)CCC(=O)Oc2ccc(C)cc2)cc1 | inactive: 3.33% | – |
| CCCc1nnc(NC(=O)Cc2coc3ccc(C(C)C)cc23)s1 | – | inconclusive [inhibitor, single point] |
| CCOC(=O)[C@]12CCC=C1N(CCC1=CCCCC1)C(=O)[C@H](CC(=O)NCc1cccc(C(F)(F)F)c1)C2 | – | inconclusive [inhibitor, single point] |
| O=C(c1cccc(S(=O)(=O)NCCOc2ccccc2)c1)N1CCN(c2ncccn2)CC1 | – | active: 25.9 µM |
| O=C(CSc1oc(-c2ccccc2)nc1S(=O)(=O)c1ccc(Cl)cc1)NC1CCCCC1 | inactive: -2.73% | – |
| O=C(CN1CCCN(S(=O)(=O)c2ccc(Br)cc2)CC1)Nc1cccc(C(F)(F)F)c1 | – | active: 20.6 µM |
| Cc1ccc(C)c(NC(=O)C2CCCN(S(=O)(=O)c3c(C)nn(C)c3C)C2)c1 (stereo not given) | – | inconclusive [inhibitor, single point] |
| O=C(Nc1ccccc1O)c1cc2cc(Br)ccc2oc1=O | inactive: 2.56% | – |
| CC1CCN(C(=O)c2ccc3c(c2)N(Cc2ccccc2)C(=O)c2ccccc2S3(=O)=O)CC1 | – | inconclusive [inhibitor, single point] |
| COc1ccccc1N(CC(=O)Nc1ccc(S(=O)(=O)N2CCCCC2)cc1)S(C)(=O)=O | – | inconclusive [inhibitor, single point] |
| COc1ccc(CNc2ncc(-c3ccc(Br)cc3)n2C)cc1OC | – | inconclusive [inhibitor, single point] |
| O=C(CCCc1nc(-c2ccc(Cl)cc2)no1)N1CCOCC1 | – | active: 23.1 µM |
| Cc1[nH]c2ccccc2c1/C=N/NC(=O)c1cc(-c2ccncc2)nc2ccccc12 | – | active: 5.8 µM |
| O=C1C2C3C=CC(CC3)C2C(=O)N1c1ccc(F)cc1 (stereo not given) | inactive: 6.53% | – |
| Cc1cc(C)c(NS(=O)(=O)c2cc(-c3onc(C)c3C)ccc2C)c(C)c1 | – | active: 13 µM |
| CCOc1ccc(C(=O)NC(=S)Nc2cccc(NC(=O)c3ccco3)c2)cc1[N+](=O)[O-] | – | inconclusive [inhibitor, partial curve] |
| CC(=O)Nc1ccc(C2C(=O)c3ccccc3C2=O)cc1 | inactive: -26.5% | – |
| CCC/C(=C1/c2ccccc2C(=O)N1c1ccccc1)c1cnc(OC)nc1 | – | inconclusive [inhibitor, single point] |
| Cc1cc2c(cc1S(=O)(=O)Nc1c(C)cccc1C)n(C)c(=O)c(=O)n2C | inactive: -2.78% | – |
| Cc1ccc(S(=O)(=O)N[C@H](CNCc2ccccc2)C(C)C)cc1 | – | inconclusive [inhibitor, single point] |
